Results: the supplement of paper PMC8728848
Some of the results follow.

Experiments:
Test in all cases: glycan array binding signal (z-score within array); higher = stronger binding
Conditions in all cases: glycan notation: IUPAC condensed, linker removed
GalNAc(b1-4)GlcNAc = target: GalNAc(b1-4)GlcNAc
How it was run: (§1)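 The binding signal is a Z-score computed within each array. Data were drawn from 3228 arrays in the Consortium for Functional Glycomics database, restricted to those with a known protein sequence. Scores were averaged over arrays of the same protein sequence at different concentrations or buffers, and over linkers, and negative values can be taken as non-binding.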

[1] = target: GalNAc(b1-4)GlcNAc(b1-2)Man
How it was run: as §1

[2] = target: GalNAc(b1-4)GlcNAc(b1-2)Man(a1-3)[GalNAc(b1-4)GlcNAc(b1-2)Man(a1-6)]Man(b1-4)GlcNAc(b1-4)GlcNAc
How it was run: as §1

[3] = target: GalNAc(b1-4)GlcNAc(b1-3)GalNAc(b1-4)GlcNAc
How it was run: as §1

GalNAc(b1-4)GlcNAc6S = target: GalNAc(b1-4)GlcNAc6S
How it was run: as §1

GalNAc(b1-6)GalNAc = target: GalNAc(b1-6)GalNAc
How it was run: as §1

GalNAc3S(b1-4)GlcNAc = target: GalNAc3S(b1-4)GlcNAc
How it was run: as §1

GalNAc3S(b1-4)GlcNAc3S = target: GalNAc3S(b1-4)GlcNAc3S
How it was run: as §1

[4] = target: GalNAc3S(b1-4)[Fuc(a1-3)]GlcNAc
How it was run: as §1

GalNAc4S6S(b1-4)GlcNAc = target: GalNAc4S6S(b1-4)GlcNAc
How it was run: as §1

GalNAc6S(b1-4)GlcNAc = target: GalNAc6S(b1-4)GlcNAc
How it was run: as §1

Glc(a1-4)Glc = target: Glc(a1-4)Glc
How it was run: as §1

[5] = target: Glc(a1-4)Glc(a1-4)Glc(a1-4)Glc
How it was run: as §1

Glc(a1-6)Glc(a1-6)Glc = target: Glc(a1-6)Glc(a1-6)Glc
How it was run: as §1

[6] = target: Glc(a1-6)Glc(a1-6)Glc(a1-6)Glc
How it was run: as §1

Glc(b1-4)Glc = target: Glc(b1-4)Glc
How it was run: as §1

Glc(b1-6)Glc = target: Glc(b1-6)Glc
How it was run: as §1

GlcA(b1-3)Gal = target: GlcA(b1-3)Gal
How it was run: as §1

GlcA(b1-3)GlcNAc = target: GlcA(b1-3)GlcNAc
How it was run: as §1

GlcA(b1-6)Gal = target: GlcA(b1-6)Gal
How it was run: as §1

[7] = target: GlcA3S(b1-3)Gal(b1-4)GlcNAc(b1-2)Man
How it was run: as §1

[8] = target: GlcA3S(b1-3)Gal(b1-4)GlcNAc(b1-3)Gal(b1-4)Glc
How it was run: as §1

[9] = target: GlcNAc(a1-3)Gal(b1-4)GlcNAc
How it was run: as §1

[10] = target: GlcNAc(a1-4)Gal(b1-3)GlcNAc
How it was run: as §1

[11] = target: GlcNAc(a1-4)Gal(b1-4)GalNAc
How it was run: as §1

[12] = target: GlcNAc(a1-4)Gal(b1-4)GlcNAc
How it was run: as §1

[13] = target: GlcNAc(a1-4)Gal(b1-4)GlcNAc(b1-3)Gal(b1-4)Glc
How it was run: as §1

[14] = target: GlcNAc(a1-4)Gal(b1-4)GlcNAc(b1-3)Gal(b1-4)GlcNAc
How it was run: as §1

[15] = target: GlcNAc(a1-4)Gal(b1-4)GlcNAc(b1-3)Gal(b1-4)GlcNAc(b1-3)Gal(b1-4)GlcNAc
How it was run: as §1

[16] = target: GlcNAc(a1-4)Gal(b1-4)GlcNAc(b1-3)Gal(b1-4)[Fuc(a1-3)]GlcNAc(b1-3)Gal(b1-4)[Fuc(a1-3)]GlcNAc
How it was run: as §1

[17] = target: GlcNAc(a1-6)Gal(b1-4)GlcNAc
How it was run: as §1

[18] = target: GlcNAc(b1-2)Gal(b1-3)GalNAc
How it was run: as §1

[19] = target: GlcNAc(b1-2)Man(a1-3)[GlcNAc(b1-2)Man(a1-6)]Man(b1-4)GlcNAc(b1-4)GlcNAc
How it was run: as §1

[20] = target: GlcNAc(b1-2)Man(a1-3)[GlcNAc(b1-2)Man(a1-6)]Man(b1-4)GlcNAc(b1-4)[Fuc(a1-6)]GlcNAc
How it was run: as §1

[21] = target: GlcNAc(b1-2)Man(a1-3)[GlcNAc(b1-4)][GlcNAc(b1-2)Man(a1-6)]Man(b1-4)GlcNAc(b1-4)GlcNAc
How it was run: as §1

[22] = target: GlcNAc(b1-2)Man(a1-3)[GlcNAc(b1-4)][GlcNAc(b1-2)Man(a1-6)]Man(b1-4)GlcNAc(b1-4)[Fuc(a1-6)]GlcNAc
How it was run: as §1

[23] = target: GlcNAc(b1-2)[GlcNAc(b1-4)]Man(a1-3)[GlcNAc(b1-2)Man(a1-6)]Man(b1-4)GlcNAc(b1-4)GlcNAc
How it was run: as §1

B1: DC-ASGPR S+GEE (Homo sapiens) (protein)
chain: MTRTYENFQYLENKVKVQGFKNGPLPLQSLLQRLRSGPCHLLLSLGLGLLLLVIICVVGFQNSKFQRDLVTLRTDFSNFTSNTVAEIQALTSQGSSLEETIASLKAEVEGFKQERQAVHSEMLLRVQQLVQDLKKLTCQVATINNNGEEASTEGTCCPVNWVEHQDSCYWFSHSGMSWAEAEKYCQLKNAHLVVINSREEQNFVQKYLGSAYTWMGLSDPEGAWKWVDGTDYATGFQNWKPGQPDDWQGHGLGGGEDCAHFHPDGRWNDDVCQRPYHWVCEAGLGQTSQESH
For B1, which “glycan array binding signal (z-score)” value (GalNAc(b1-4)GlcNAc) is on record?
The value was 2.76.

And the “glycan array binding signal (z-score)” value [1]?
The value was 2.7.

And the “glycan array binding signal (z-score)” value [2]?
Its value is 0.801.

And the “glycan array binding signal (z-score)” value [3]?
The value was 3.84.

And the “glycan array binding signal (z-score)” value (GalNAc(b1-4)GlcNAc6S)?
Its value is 3.14.

What about the “glycan array binding signal (z-score)” value (GalNAc(b1-6)GalNAc) of the same binder?
Its value is -0.388.

And the “glycan array binding signal (z-score)” value (GalNAc3S(b1-4)GlcNAc)?
Its value is -0.351.

And the “glycan array binding signal (z-score)” value (GalNAc3S(b1-4)GlcNAc3S)?
Its value is -0.283.

And the “glycan array binding signal (z-score)” value [4]?
Its value is -0.27.

And the “glycan array binding signal (z-score)” value (GalNAc4S6S(b1-4)GlcNAc)?
The value was -0.288.

And the “glycan array binding signal (z-score)” value (GalNAc6S(b1-4)GlcNAc)?
The value was 2.73.

And the “glycan array binding signal (z-score)” value (Glc(a1-4)Glc)?
Its value is -0.342.

What about the “glycan array binding signal (z-score)” value [5] of the same binder?
The value was -0.35.

What about the “glycan array binding signal (z-score)” value (Glc(a1-6)Glc(a1-6)Glc) of the same binder?
Its value is 0.193.

And the “glycan array binding signal (z-score)” value [6]?
Its value is 0.001.

What about the “glycan array binding signal (z-score)” value (Glc(b1-4)Glc) of the same binder?
The value was -0.376.

And the “glycan array binding signal (z-score)” value (Glc(b1-6)Glc)?
The value was -0.268.

And the “glycan array binding signal (z-score)” value (GlcA(b1-3)Gal)?
The value was -0.236.

And the “glycan array binding signal (z-score)” value (GlcA(b1-3)GlcNAc)?
The value was -0.36.

What about the “glycan array binding signal (z-score)” value (GlcA(b1-6)Gal) of the same binder?
Its value is -0.429.

What about the “glycan array binding signal (z-score)” value [7] of the same binder?
Its value is -0.4.

What about the “glycan array binding signal (z-score)” value [8] of the same binder?
The value was -0.302.

And the “glycan array binding signal (z-score)” value [9]?
Its value is -0.318.

And the “glycan array binding signal (z-score)” value [10]?
Its value is -0.328.

And the “glycan array binding signal (z-score)” value [11]?
Its value is -0.318.

What about the “glycan array binding signal (z-score)” value [12] of the same binder?
The value was -0.318.

And the “glycan array binding signal (z-score)” value [13]?
The value was -0.278.

What about the “glycan array binding signal (z-score)” value [14] of the same binder?
The value was -0.296.

And the “glycan array binding signal (z-score)” value [15]?
Its value is -0.289.

What about the “glycan array binding signal (z-score)” value [16] of the same binder?
Its value is -0.313.

And the “glycan array binding signal (z-score)” value [17]?
The value was -0.341.

What about the “glycan array binding signal (z-score)” value [18] of the same binder?
The value was -0.31.

And the “glycan array binding signal (z-score)” value [19]?
The value was -0.285.

What about the “glycan array binding signal (z-score)” value [20] of the same binder?
Its value is -0.306.

And the “glycan array binding signal (z-score)” value [21]?
The value was -0.118.

What about the “glycan array binding signal (z-score)” value [22] of the same binder?
The value was -0.282.

And the “glycan array binding signal (z-score)” value [23]?
The value was -0.463.
